Data: PubChem BioAssay (EPA / NIEHS)
A number of entries come with more than one value. The other results are left out here. An entry can have further records. The values listed for one entry are repeats (runs, samples, wells, individuals or studies). Inconclusive results are not listed. The calls were made as follows, unless noted: active = hit-call score of the fitted dose curve at least 0.9, where 1 is the maximum; inactive = score below 0.9. More than one record can exist for a structure, and the calls need not agree. Brackets with × stand for listed records that agree.

Assays:
[1] = ATG_BRE_CIS: Attagene CIS-FACTORIAL HepG2 Assay for human Bone Morphogenetic Protein (BMP) Response Element (BRE) (AID 2282933); settings: HepG2 BMP response element reporter, Attagene transcription factor profiling; actives raise or lower the signal
In short: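 Read-out: reporter mRNA induction quantified by RT-PCR and capillary electrophoresis after 24 h chemical exposure of transfected HepG2 cells. Endogenous factor activity on the BMP response element; gain or loss fitted against DMSO baseline.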

[2] = target: Retinoic acid receptor alpha (Homo sapiens) (UniProt P10276); experiment: ATG_DR5_RAR_CIS: Attagene CIS-FACTORIAL HepG2 Assay for human Retinoic Acid Receptor Alpha (RARE), DR5 submotif (AID 2282934); settings: HepG2 Attagene cis-factorial RARE DR5 reporter, mRNA; actives raise or lower the signal;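 also: reporter responds to endogenous RAR alpha beta and gamma in HepG2 not RARA alone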
Chain of UniProt P10276 (P10276 whole entry, looked up): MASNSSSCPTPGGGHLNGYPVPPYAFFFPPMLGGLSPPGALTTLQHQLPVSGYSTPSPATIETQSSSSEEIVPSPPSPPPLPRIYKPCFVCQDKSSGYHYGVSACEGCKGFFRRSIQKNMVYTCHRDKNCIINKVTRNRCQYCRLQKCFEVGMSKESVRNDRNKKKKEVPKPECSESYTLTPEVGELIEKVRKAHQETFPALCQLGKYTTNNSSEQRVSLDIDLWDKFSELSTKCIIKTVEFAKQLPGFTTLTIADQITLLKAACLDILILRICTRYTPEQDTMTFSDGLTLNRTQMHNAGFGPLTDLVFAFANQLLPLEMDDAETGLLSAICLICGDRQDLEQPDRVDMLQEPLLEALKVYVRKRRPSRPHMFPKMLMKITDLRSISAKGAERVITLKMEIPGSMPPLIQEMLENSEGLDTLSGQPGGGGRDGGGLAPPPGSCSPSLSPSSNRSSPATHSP

[3] = ATG_ISRE_CIS: Attagene CIS-FACTORIAL HepG2 Assay for human Interferon Regulatory Factor 1 (IRF1) binding to an Interferon-Stimulated Response Element (ISRE) (AID 2282948); settings: HepG2 ISRE cis-reporter (Attagene), mRNA transcription readout; actives raise or lower the signal
In short: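 Multiplexed mRNA reporter readout in human liver HepG2 cells: cis-element-driven reporters transfected, compound added for 24 h, transcripts amplified, fluorescently labelled and sized by capillary electrophoresis; curve fitting bidirectional against DMSO.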

[4] = ATG_PBREM_CIS: Attagene CIS-FACTORIAL HepG2 Assay for human Phenobarbital-responsive Enhancer Module (PBREM) (AID 2282955); settings: HepG2 PBREM cis-reporter, Attagene multiplexed transcription; actives raise or lower the signal
In short: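 Multiplexed cis-reporter readout in human hepatoma HepG2 cells; PBREM-regulated transcript quantified after 24 h exposure by fluorescent RT-PCR fragment analysis. Signal changes up or down fitted relative to DMSO.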

[5] = ATG_SREBP_CIS: Attagene CIS-FACTORIAL HepG2 Assay for human Sterol Regulatory Element Binding (SREBP) (AID 2282962); settings: HepG2 Attagene cis-factorial SREBP reporter, mRNA; actives raise or lower the signal
In short: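 Endogenous factor activity is measured in HepG2 through multiplexed reporter units under cis-element control. Following a 24 h incubation, reporter transcripts are reverse-transcribed, PCR-amplified and sized by capillary electrophoresis; activity is fitted in both directions relative to DMSO.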

[6] = ATG_VDRE_CIS: Attagene CIS-FACTORIAL HepG2 Assay for human Vitamin D Receptor Element (VDRE) (AID 2282968); settings: HepG2 VDRE cis-reporter transcription, actives raise or lower the signal
In short: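 Steps: transfect HepG2 with multiple reporter transcription units; dose chemicals 24 h; isolate RNA; RT-PCR; label with 6-FAM primer extension; HpaI digest; capillary electrophoresis. Curves fitted both directions against DMSO.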

[7] = target: Nuclear receptor subfamily 4 group A member 2 (Homo sapiens) (UniProt P43354); experiment: ATG_NURR1_TRANS: Attagene TRANS-FACTORIAL HepG2 Assay for human Nuclear Receptor Related Protein 1 (NURR1) (AID 2282985; active = hit-call score of the fitted dose curve at least 0.9, where 1 is the maximum); settings: HepG2 Attagene TRANS reporter, mRNA readout
Chain of UniProt P43354 (P43354 whole entry, looked up, the tested form may be a part): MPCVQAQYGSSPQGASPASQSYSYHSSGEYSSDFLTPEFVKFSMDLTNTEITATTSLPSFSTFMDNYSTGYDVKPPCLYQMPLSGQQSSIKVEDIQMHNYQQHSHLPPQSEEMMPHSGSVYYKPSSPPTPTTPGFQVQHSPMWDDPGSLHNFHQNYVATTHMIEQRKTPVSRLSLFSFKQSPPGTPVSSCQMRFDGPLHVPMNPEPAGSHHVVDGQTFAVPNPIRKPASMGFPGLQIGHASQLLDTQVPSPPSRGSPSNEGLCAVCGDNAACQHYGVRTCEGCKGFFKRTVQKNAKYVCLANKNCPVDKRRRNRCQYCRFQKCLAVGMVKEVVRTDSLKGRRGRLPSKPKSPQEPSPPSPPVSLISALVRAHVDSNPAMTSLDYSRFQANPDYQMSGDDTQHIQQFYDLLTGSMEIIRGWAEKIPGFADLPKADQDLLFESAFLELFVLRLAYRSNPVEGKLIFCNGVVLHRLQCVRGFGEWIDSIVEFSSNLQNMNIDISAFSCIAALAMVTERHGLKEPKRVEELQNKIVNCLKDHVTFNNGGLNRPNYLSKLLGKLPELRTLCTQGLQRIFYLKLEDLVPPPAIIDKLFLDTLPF
In short: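 Chimeric NR-Gal4 fusion activity measured in HepG2 after 24 h treatment. Reporter transcripts detected by RT-PCR and capillary electrophoresis fluorescence; positive-direction curve fitting against DMSO.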

[8] = target: Myc proto-oncogene protein (Homo sapiens) (UniProt P01106); experiment: ATG_Myc_CIS: Attagene CIS-FACTORIAL HepG2 Assay for human Myelocytomatosis (Myc) Proto-Oncogene Transcription Factor (AID 2282990); settings: HepG2, Attagene cis-reporter transcription factor activity; actives raise or lower the signal
Chain of UniProt P01106 (P01106 whole entry, looked up): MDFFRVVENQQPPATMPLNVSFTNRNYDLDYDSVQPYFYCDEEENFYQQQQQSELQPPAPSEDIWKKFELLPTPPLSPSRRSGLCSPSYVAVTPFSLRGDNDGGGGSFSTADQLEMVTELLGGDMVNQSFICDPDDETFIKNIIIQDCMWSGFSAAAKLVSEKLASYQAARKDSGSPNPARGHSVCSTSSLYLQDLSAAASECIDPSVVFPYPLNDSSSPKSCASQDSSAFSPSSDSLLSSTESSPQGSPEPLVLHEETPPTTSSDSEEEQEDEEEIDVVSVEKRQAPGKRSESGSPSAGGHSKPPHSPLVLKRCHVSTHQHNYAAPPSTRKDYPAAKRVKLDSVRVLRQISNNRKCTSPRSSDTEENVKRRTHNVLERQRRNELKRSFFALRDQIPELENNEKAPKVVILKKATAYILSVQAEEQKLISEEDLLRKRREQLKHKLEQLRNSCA
In short: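 Multiplexed cis-reporter transcription in HepG2 cells after 24 h chemical treatment. Reporter mRNA measured by RT-PCR and capillary electrophoresis fluorescence; activity fitted bidirectionally against DMSO control.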

[9] = ATG_NRF2_ARE_CIS: Attagene CIS-FACTORIAL HepG2 Assay for human Nuclear Factor Erythroid 2 Related Factor 2 (NFR2) response to Antioxidant Response Elements (ARE) (AID 2282992); settings: HepG2 Attagene ARE/NRF2 reporter, transcription factor activity; actives raise or lower the signal
In short: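 Endogenous transcription factor activity in human liver HepG2 cells is tracked via a cis-element-driven reporter within a multiplexed set. mRNA induction is read by RT-PCR and capillary electrophoresis after 24 h, with DMSO as baseline.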

[10] = target: Nuclear receptor subfamily 1 group I member 2 (Homo sapiens) (UniProt O75469); experiment: ATG_PXR_TRANS: Attagene TRANS-FACTORIAL HepG2 Assay for human Pregnane X Receptor (PXR) (AID 2283008; active = hit-call score of the fitted dose curve at least 0.9, where 1 is the maximum)
Chain of UniProt O75469 (O75469 whole entry, looked up, the tested form may be a part): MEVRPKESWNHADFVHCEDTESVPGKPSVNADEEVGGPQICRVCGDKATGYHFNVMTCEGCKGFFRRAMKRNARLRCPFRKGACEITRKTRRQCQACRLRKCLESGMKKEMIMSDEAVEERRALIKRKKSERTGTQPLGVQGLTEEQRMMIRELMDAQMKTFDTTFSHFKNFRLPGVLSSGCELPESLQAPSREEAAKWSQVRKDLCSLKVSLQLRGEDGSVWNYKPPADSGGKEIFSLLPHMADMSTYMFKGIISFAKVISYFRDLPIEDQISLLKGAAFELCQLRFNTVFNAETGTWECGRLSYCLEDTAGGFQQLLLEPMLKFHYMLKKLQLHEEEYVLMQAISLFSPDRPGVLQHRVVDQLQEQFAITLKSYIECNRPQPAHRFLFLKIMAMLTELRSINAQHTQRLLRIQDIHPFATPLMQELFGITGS
In short: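 HepG2 transfected (FuGene 6) with GAL4-UAS reporter units + PXR-Gal4 chimera; dosed 24 h. Total RNA → oligo(dT) RT → PCR → 6-FAM primer extension → HpaI cut → CE. Gain-of-signal vs DMSO.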

[11] = target: Cytochrome P450 2C19 (Homo sapiens) (UniProt P33261); experiment: NVS_ADME_hCYP2C19: NovaScreen (NVS) CYP450-related Enzyme Activity (ADME) Assay for human CYP2C19 (AID 2283113; active = hit-call score of the fitted dose curve at least 0.9, where 1 is the maximum;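 also: potency for inhibition seen as loss of fluorescent signal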)
Chain of UniProt P33261 (P33261 whole entry, looked up): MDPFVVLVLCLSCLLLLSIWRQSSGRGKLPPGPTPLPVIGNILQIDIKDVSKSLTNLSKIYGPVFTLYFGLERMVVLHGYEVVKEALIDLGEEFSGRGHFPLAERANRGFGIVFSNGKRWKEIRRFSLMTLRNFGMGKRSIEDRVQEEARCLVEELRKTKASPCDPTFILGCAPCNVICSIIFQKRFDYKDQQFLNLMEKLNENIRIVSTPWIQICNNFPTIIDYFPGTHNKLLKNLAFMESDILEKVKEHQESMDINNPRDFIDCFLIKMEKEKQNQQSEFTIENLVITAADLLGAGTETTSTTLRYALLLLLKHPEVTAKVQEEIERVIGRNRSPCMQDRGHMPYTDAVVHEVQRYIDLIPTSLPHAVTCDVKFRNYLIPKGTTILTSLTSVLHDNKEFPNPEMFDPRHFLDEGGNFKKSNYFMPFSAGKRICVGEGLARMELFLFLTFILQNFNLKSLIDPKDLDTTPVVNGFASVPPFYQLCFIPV
In short: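 Fluorescence intensity was measured 1 hour after chemicals were added to insect-cell-derived recombinant CYP2C19 with fluorogenic substrate. Decreased signal versus acetonitrile control was taken as reduced enzyme activity; initial testing used 10 uM in duplicate.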

[12] = APR_HepG2_CellLoss_24hr: Apredica 24-hour HepG2 Assay for Cell Loss (AID 2282908); settings: high-content imaging;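 also: fit in both directions so a hit may be cell loss or gain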
In short: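 Nuclei stained with Hoechst 33342 after formaldehyde fixation (3.7%) were imaged at 20x to count cells. Exposure lasted 24 hr, at ten concentrations from 0.39 to 200 uM in duplicate, with 0.5% v/v DMSO. Fit bidirectional, relative to DMSO.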

[13] = target: Glucocorticoid receptor (Homo sapiens) (UniProt P04150); experiment: NVS_NR_hGR: NovaScreen (NVS) Nuclear Receptor Binding Assay for human Glucocorticoid Receptor (GR) (AID 2283363; active = hit-call score of the fitted dose curve at least 0.9, where 1 is the maximum;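 also: activity is loss of specific radioligand binding signal relative to DMSO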)
Chain of UniProt P04150 (P04150 whole entry, looked up): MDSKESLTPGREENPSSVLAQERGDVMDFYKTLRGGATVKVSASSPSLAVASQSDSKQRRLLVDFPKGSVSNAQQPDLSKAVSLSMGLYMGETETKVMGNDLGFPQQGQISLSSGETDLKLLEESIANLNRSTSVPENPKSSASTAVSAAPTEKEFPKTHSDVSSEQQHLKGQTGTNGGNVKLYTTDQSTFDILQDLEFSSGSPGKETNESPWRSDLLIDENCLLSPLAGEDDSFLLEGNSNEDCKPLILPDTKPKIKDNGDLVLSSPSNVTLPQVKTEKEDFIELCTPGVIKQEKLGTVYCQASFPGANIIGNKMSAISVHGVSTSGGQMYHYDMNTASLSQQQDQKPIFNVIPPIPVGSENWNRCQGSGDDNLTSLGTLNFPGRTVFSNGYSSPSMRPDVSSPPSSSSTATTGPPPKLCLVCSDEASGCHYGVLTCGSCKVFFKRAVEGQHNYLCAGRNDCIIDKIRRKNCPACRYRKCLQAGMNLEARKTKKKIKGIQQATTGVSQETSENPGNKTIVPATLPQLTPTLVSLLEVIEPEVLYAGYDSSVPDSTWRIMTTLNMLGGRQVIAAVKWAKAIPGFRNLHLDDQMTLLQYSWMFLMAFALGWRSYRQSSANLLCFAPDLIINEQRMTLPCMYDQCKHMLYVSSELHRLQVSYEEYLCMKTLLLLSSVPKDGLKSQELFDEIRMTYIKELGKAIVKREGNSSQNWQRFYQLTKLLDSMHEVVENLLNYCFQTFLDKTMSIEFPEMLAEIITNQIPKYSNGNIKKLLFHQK
In short: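 Single-readout cell-free binding: radioligand plus extracted receptor, 16-hour dosing, filter radiodetection; 25 uM duplicate primary, concentration series secondary.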

[14] = ATG_DR4_LXR_CIS: Attagene CIS-FACTORIAL HepG2 Assay for human Liver X Receptor (LXR), DR4 submotif (AID 2282929); settings: HepG2 Attagene DR4 cis-reporter, mRNA transcription; actives raise or lower the signal
In short: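 Transiently transfected HepG2 liver cells; cis-regulated reporters; 24 h dosing. RT-PCR plus CE read-out of reporter mRNA. DMSO baseline, bidirectional curve fitting.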

## C=CCC1=C(C)C(OC(=O)C2C(C=C(C)C)C2(C)C)CC1=O (stereo not given)
[1]
  AC50: active: 42.3, 44.5, 26.4, 24.9, 44.6, 13.8 µM [separate samples]
[2]
  AC50: active: 971 nM, 763 nM, 609 nM, 494 nM, 20.8 µM, 3.04 µM [separate samples]
[3]
  AC50: active: 29.5, 55.7, 55, 26.6, 81.7 µM [separate samples]
[4]
  AC50: active: 1.79, 11.6, 20.8, 34.1 µM [separate samples]
[5]
  AC50: active: 43.7, 28.5, 24.7, 83.6, 34.9 µM [separate samples]
[6]
  AC50: active: 1.28, 5.2, 2.39, 1.89, 21.8 µM [separate samples]
[7]
  AC50: active: 29.6, 42, 39, 45.4, 28.2, 7.44 µM [separate samples]
[8]
  AC50: active: 35 (2×), 89.7, 126, 76.8 µM [separate samples]
[9]
  AC50: active: 28.9, 25.3, 27.2, 25.7, 27, 5.76 µM [separate samples]
[10]
  AC50: active: 1.07 µM, 632 nM, 1.57 µM, 1.45 µM, 2.13 µM, 13 µM [separate samples]
[11]
  AC50: active: 1.52, 1.37, 9.46, 3.84 µM [separate samples]

## CCCN(CCC)c1c([N+](=O)[O-])cc(S(N)(=O)=O)cc1[N+](=O)[O-]
[12]
  AC50: active: 30.8, 28.6, 52.5, 137 µM [separate samples]
[13]
  AC50: active: 297 nM, 1.12 µM, 933 nM, 1.2 µM [separate samples]

## COc1ccc(C(c2ccc(OC)cc2)C(Cl)(Cl)Cl)cc1
[14]
  AC50: active: 14, 39.6, 23.3, 5.1 µM [separate samples]
[9]
  AC50: active: 29.5, 60.1, 38.8, 3.14 µM [separate samples]
